From the BET-seq Pho4 binding data (Le et al. 2018)
The list shows a part of the results. Values were computed here from the reads of four pooled replicates and scatter widely.

What follows are sequences tested against T1, Pho4 (S. cerevisiae) (UniProt P07270) (assay: relative binding free energy (BET-seq); higher = weaker binding). Details: reference: library average.
T1 sequence: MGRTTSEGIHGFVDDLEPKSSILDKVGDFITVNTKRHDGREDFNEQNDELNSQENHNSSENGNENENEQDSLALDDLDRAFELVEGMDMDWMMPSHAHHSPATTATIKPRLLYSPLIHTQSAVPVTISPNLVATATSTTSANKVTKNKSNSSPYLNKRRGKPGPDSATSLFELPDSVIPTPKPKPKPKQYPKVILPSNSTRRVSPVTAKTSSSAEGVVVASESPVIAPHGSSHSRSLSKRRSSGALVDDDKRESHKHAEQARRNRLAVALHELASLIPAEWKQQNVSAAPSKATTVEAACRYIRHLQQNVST

Sequence | relative binding free energy [kcal/mol]
AAGTGCACGTGTAGAT | 0.21
TAGTCCACGTGTGTTT | 0.18
AATCTCACGTGATGTT | 0.27
TGAGCCACGTGAGTTG | 0.15
AAGGACACGTGTGGAG | 0.06
CAGTTCACGTGTTGTC | 0.3
CGAGGCACGTGTATGG | -0.21
AGGGTCACGTGTAGGG | 0.13
GATTACACGTGAAGTT | 0.54
AGTTCCACGTGAGCGT | 0.23
TTTTACACGTGTGCTG | 0.09
GGCGCCACGTGGGGTA | -0.23
GTTCTCACGTGCTGTT | 0.28
AATGTCACGTGTGCGG | 0.18
GCAGACACGTGGGAGG | -0.03
GGTTTCACGTGGCGGG | 0.42
TCATTCACGTGTATAT | 0.17
TTGAACACGTGTGATT | 0.08
CTTTGCACGTGTGCTG | -0.06
ACGTACACGTGAGGGT | 0.29
AGCAACACGTGGTTGT | -0.01
TTGCACACGTGGCGGG | -0.1
GTATCCACGTGGGTTG | -0.12

Sequence | relative binding free energy [kcal/mol]
TGTAGCACGTGGGTTA | -0.11
TCTTACACGTGTGCGT | 0.15
ACGTTCACGTGTGTTC | 0.21
TAAAACACGTGGGGAG | -0.17
ACTGGCACGTGTTGAG | -0.07
TTAAGCACGTGTCATG | -0.17
AGTTACACGTGACGGG | 0.35
GGTGTCACGTGGCTTA | 0.18
GTTGGCACGTGGATGT | -0.02
ATTTTCACGTGGTCAG | 0.23
AGATGCACGTGCAGGG | -0.14
AGTCACACGTGGGGGG | -0.11
GGGGGCACGTGAGGAT | 0.07
TTGGCCACGTGAGTAT | 0.09
TGGAGCACGTGGGGGT | -0.17
TTAGTCACGTGAAGAT | 0.31
GTGTACACGTGTGTCT | 0.07
AGAAGCACGTGGCGTA | -0.09
GTGTGCACGTGCTCTT | 0.05
TGGTTCACGTGCGGGG | 0.27
TGTCGCACGTGAGGTG | 0.14
TGTATCACGTGCTTTA | 0.11
GAGTTCACGTGTAGGT | 0.24

Sequence | relative binding free energy [kcal/mol]
CATAACACGTGGGCGG | 0.02
TTGTTCACGTGAATGC | 0.4
TTAAGCACGTGTTACG | -0.19
AGGTACACGTGGTGTC | -0.1
GTACTCACGTGGGTAT | 0.05
ATTATCACGTGTGATG | 0.24
TGATTCACGTGGTGGG | 0.24
TCGGGCACGTGGTCAG | -0.16
CTTATCACGTGTGAAT | 0.25
ATGCGCACGTGGATAG | -0.1
TTGATCACGTGTGTAC | 0.15
AGGAGCACGTGGCATG | -0.2
ATGATCACGTGGTTTA | 0.15
GTGCTCACGTGATAGG | 0.29
GTTTTCACGTGGCCTT | 0.48
GGTATCACGTGATTTC | 0.5
ATGCGCACGTGTGTGA | -0.24
CCAGGCACGTGGGTGT | -0.23
TATGTCACGTGGGATT | 0.02
GGCGACACGTGTGGTT | 0.16
CTACGCACGTGTAGGT | -0.05
GATGACACGTGAGTGA | 0.22
GGGTGCACGTGACAGT | -0.1

Sequence | relative binding free energy [kcal/mol]
GGGTTCACGTGTGGCG | 0.42
TTCAGCACGTGGGGTC | -0.19
GGCGACACGTGTTGGT | 0.21
GTGGACACGTGTTCGT | 0.15
ATTGGCACGTGTGTGT | -0.03
CGGGACACGTGGGTTC | -0.03
TTGGGCACGTGGCTTA | -0.27
GGTATCACGTGTTGTT | 0.21
TGGACCACGTGGATGG | -0.06
TTAAACACGTGGCGGG | -0.07
AATTGCACGTGAAAGG | 0.26
TGTAACACGTGTGAAT | 0.14
GATTTCACGTGAATGA | 0.43
TTATTCACGTGATGCT | 0.29
GGAGACACGTGGTTGT | 0.1
ATCGGCACGTGGTATC | 0.13
GTGTACACGTGGGATG | -0.1
GTATACACGTGTTAGG | -0.01
CTATGCACGTGTTTGG | -0.03
GGCTGCACGTGCGGAG | 0.02
TGGCACACGTGTTATG | 0.09
CGGATCACGTGGTTGA | 0.3
GTATACACGTGGTGGA | 0.06

Sequence | relative binding free energy [kcal/mol]
TGGCGCACGTGGTTTC | -0.12
CTGCGCACGTGTAGTG | -0.19
CTGTTCACGTGGGTCG | 0.02
TAATGCACGTGTACTG | -0.01
TGGGCCACGTGTGGGA | 0.01
GTGGACACGTGTCTAG | 0.19
TAAAACACGTGTTCGG | 0.1
ATTTTCACGTGGTAAG | 0.26
GCTGTCACGTGTAGCG | 0.17
AAAGGCACGTGAGCGT | 0.12
GTAGTCACGTGGAGTA | 0.08
CTGGGCACGTGACTGT | -0.07
TTTGACACGTGCTGAG | 0.04
TATTTCACGTGTGGCT | 0.46
TAAGACACGTGTTGGT | 0.1
GGTTGCACGTGGAGCT | 0.08
GGGGACACGTGAGAAT | 0.49
TAGGTCACGTGATGTA | 0.23
CATGTCACGTGTTGTC | 0.06
ATAGACACGTGGTGGC | -0.08
GGGCGCACGTGATTGA | 0.09
TAATGCACGTGTGGGT | 0.04
GGATACACGTGGATGG | 0.18
